Some of the results follow.

The subject of the experiment is HSkMC (human skeletal muscle cells). Description: cytotoxicity call (relative viability < 0.9). The following applies: 10 µM.
In the case of `O=C1OC(=O)[C@H]2[C@@H]1[C@H]1CC[C@H]2O1`, the cytotoxicity call was “inactive”.

`CC(C)NC(=O)Nc1ccc2c(c1)C(=O)N([C@H](C)CO)C[C@H](C)[C@H](CN(C)S(=O)(=O)c1cn(C)cn1)O2`: the cytotoxicity call was “inactive”. As to `C[C@H](CO)N1C[C@H](C)[C@H](CN(C)C(=O)Nc2ccnc(N3CCOCC3)c2)OCc2cn(nn2)CCCC1=O`, the cytotoxicity call is “inactive”.

As to `COCC(=O)N1c2ccccc2C[C@H]1C(N)=O`, the cytotoxicity call is “inactive”. As to `Cc1cc(C(=O)Nc2cccc3c2O[C@H](CN(C)Cc2ccc4c(c2)OCO4)[C@@H](C)CN([C@H](C)CO)C3=O)n(C)n1`, the cytotoxicity call is “inactive”. As to `CC(=O)Nc1ccc(O)cc1`, the cytotoxicity call is “inactive”. As for `C[C@H]1CN([C@@H](C)CO)C(=O)Cc2cc(NC(=O)CCN3CCOCC3)ccc2O[C@H]1CN(C)S(=O)(=O)c1cn(C)cn1`, the cytotoxicity call was “inactive”. Turning to `C[C@@H]1CN([C@@H](C)CO)C(=O)Cc2cc(NC(=O)Cc3cn(C)c4ccccc34)ccc2O[C@H]1CN(C)C(=O)Nc1cccc2ccccc12`, the cytotoxicity call was “inactive”. With `C[C@@H]1CCCCO[C@H](CN(C)C(=O)c2ccccc2)[C@@H](C)CN([C@H](C)CO)C(=O)c2cc(NC(=O)Nc3ccc(C(F)(F)F)cc3)ccc2O1` the entry was “inactive”; with `C[C@@H]1CCCCO[C@H](CN(C)C(=O)C2CCCCC2)[C@H](C)CN([C@@H](C)CO)C(=O)c2cc(NC(=O)C3CCCCC3)ccc2O1`, “inactive”. Take `COc1cccc(S(=O)(=O)N(C)C[C@@H]2Oc3ncc(-c4cccc(F)c4)cc3C(=O)N([C@H](C)CO)C[C@@H]2C)c1`: the cytotoxicity call was “inactive”. Regarding `CC(C)NC(=O)N(C)C[C@@H]1Oc2c(NC(=O)C3CCOCC3)cccc2C(=O)N([C@@H](C)CO)C[C@@H]1C`, the cytotoxicity call was “inactive”.

On to `C[C@@H]1CN([C@@H](C)CO)C(=O)Cc2cc(NS(=O)(=O)c3cn(C)cn3)ccc2O[C@@H]1CN(C)C(=O)NC1CCCCC1`, for which the cytotoxicity call is “inactive”.

With `Nc1ncnc2c1ncn2[C@@H]1O[C@H](CO)C[C@H]1O`, the cytotoxicity call was “inactive”. Take `C[C@H](CO)N1C[C@H](C)[C@@H](CN(C)Cc2ccc(C(=O)O)cc2)Oc2ccc(NC(=O)C3CC3)cc2C1=O`: the cytotoxicity call was “inactive”. For `Nc1c(C(=O)c2ccccc2)no[n+]1[O-]`, the cytotoxicity call was “inactive”.

`COc1c(-c2ccccc2)oc2cc(O)cc(O)c2c1=O`: the cytotoxicity call was “inactive”. `CC(C)NC(=O)N(C)C[C@@H]1Oc2c(NS(=O)(=O)c3cn(C)cn3)cccc2C(=O)N([C@@H](C)CO)C[C@@H]1C`: the cytotoxicity call is “inactive”. For `O=C(C[C@H]1CC[C@@H](NC(=O)CN2CCOCC2)[C@@H](CO)O1)NC1CCC1` the value was “inactive”.

`C/C(=C/CC[C@@H](CO)[C@H]1CC[C@@]2(C)[C@H]3CC[C@@H]4C(C)(C)[C@H](O[C@H]5O[C@@H](CO)[C@@H](O)[C@@H](O)[C@@H]5O)C[C@H](O)[C@@]45C[C@@]35CC[C@@]12C)CO[C@H]1O[C@@H](CO)[C@@H](O)[C@@H](O)[C@@H]1O`: the cytotoxicity call is “inactive”.

`O=C(C=Cc1ccccc1)c1ccc(OC2OC(CO)C(O)C(O)C2O)cc1O` (stereo not given): the cytotoxicity call is “inactive”. Turning to `COCC#Cc1ccc2c(c1)O[C@@H](CN(C)Cc1ccc3c(c1)OCO3)[C@H](C)CN([C@H](C)CO)S2(=O)=O`, the cytotoxicity call is “inactive”.

Take `C[C@H]1CCCCO[C@H](CN(C)Cc2ccc3c(c2)OCO3)[C@@H](C)CN([C@@H](C)CO)C(=O)c2cc(NC(=O)C3CCCCC3)ccc2O1`: the cytotoxicity call was “inactive”. Consider `CS(=O)(=O)Nc1ccc2c(c1)[C@H]1C[C@H](CC(=O)NCc3ccc(-c4ccccc4)cc3)O[C@@H](CO)[C@H]1O2`, for which the cytotoxicity call was “inactive”. As to `C[C@@H]1CCCCO[C@@H](CN(C)Cc2ccncc2)[C@H](C)CN([C@H](C)CO)C(=O)c2cc(NC(=O)c3ccccc3)ccc2O1`, the cytotoxicity call was “inactive”.

Consider `C[C@@H]1CCCCO[C@@H](CN(C)C(=O)Nc2cccc3ccccc23)[C@@H](C)CN([C@H](C)CO)C(=O)c2cc(NC(=O)Nc3ccccc3)ccc2O1`, for which the cytotoxicity call is “inactive”.

As to `CO[C@@H]1CN(C)C(=O)c2ccc(NS(C)(=O)=O)cc2OC[C@H](C)N(C(=O)CN(C)C)C[C@H]1C`, the cytotoxicity call is “inactive”. `COc1ccc(-c2cnc3c(c2)C(=O)N([C@H](C)CO)C[C@@H](C)[C@H](CN(C)C(=O)Cc2ccncc2)O3)cc1`: the cytotoxicity call is “inactive”.

As for `C[C@@H]1CN([C@H](C)CO)C(=O)CCCn2cc(nn2)CO[C@@H]1CN(C)S(=O)(=O)c1ccccc1C#N`, the cytotoxicity call was “inactive”. Regarding `Cc1ccc(=O)[nH]n1`, the cytotoxicity call is “inactive”. On to `O=C(C[C@@H]1CC[C@@H]2[C@H](COC[C@H](O)CN2S(=O)(=O)c2ccc(F)cc2)O1)NCc1ccncn1`, for which the cytotoxicity call was “inactive”. Regarding `CN(C)CCCNC(=O)C[C@@H]1C=C[C@@H](NC(=O)Cc2cccnc2)[C@@H](CO)O1`, the cytotoxicity call is “inactive”.

As to `C[C@@H]1CN([C@H](C)CO)C(=O)Cc2cc(NC(=O)Nc3cccc4ccccc34)ccc2O[C@@H]1CN(C)Cc1ccc(C(F)(F)F)cc1`, the cytotoxicity call was “inactive”. With `C=CC(=O)NS(=O)(=O)c1ccccc1` the entry was “inactive”. `COC(=O)Cn1c(Cl)nc2c1c(=O)n(C)c(=O)n2C`: the cytotoxicity call was “inactive”. `CN1CCN(C(=O)[C@H]2C[C@H]3CN(c4ncc(F)cn4)C[C@@H]3N2C)CC1`: the cytotoxicity call was “inactive”. For the molecule `C[C@@H]1CN([C@@H](C)CO)C(=O)c2cccc(NC(=O)c3ccncc3)c2O[C@@H]1CN(C)S(=O)(=O)c1cccs1`, the cytotoxicity call was “inactive”. With `C[C@H]1CN([C@@H](C)CO)C(=O)Cc2cc(NC(=O)Cn3cnnn3)ccc2O[C@H]1CN(C)Cc1ccc(C(=O)Nc2ccccc2N)cc1` the entry was “inactive”; with `COc1ccc(C#Cc2ccc3c(c2)O[C@@H](CN(C)C(C)=O)[C@H](C)CN([C@@H](C)CO)S3(=O)=O)cc1`, “inactive”; with `C[C@H]1CN([C@@H](C)CO)C(=O)CCCn2nncc2CO[C@@H]1CN(C)S(=O)(=O)c1ccccc1C#N`, “inactive”.

The values are drawn from the antibiotic and cytotoxicity screens of Wong et al. (2023).
